# Reference: patent publication US20230096897A1, “Lymphocyte Population and Methods for Producing Same” (AVM Biotechnology, LLC, priority 2020, published 2023)
# System: AVM-NKT cells
# Settings: mouse, in vivo
substance,measurement,value
methylprednisone,Induction of AVM-NKT cells in blood,not induced
